# Experimental data from the supplement of paper PMC10126150.
# Sequences with one replicate were seen in a single cluster, so their values are uncertain.
# Tested on: ATP
# Assay: switch fluorescence ratio, 500 uM ATP over buffer (Cy3 cluster intensity, sum of 5 cycles each) (fold (ratio)); higher = stronger signal-on switching upon ATP binding; sequences stand for … in TCGTCGGCAGCGTCAGATGTGTATAAGAGACAGTTTTTTTTTTTTTTTTTTTTTTTTT…TC
# Details: aptamer strand: ATP DNA aptamer (quencher-CACCTGGGGGAGTATTGCGGAGGAAGG + anchor), 100 nM annealed; ATP concentration: 500 uM; one replicate
# Procedure, shortened: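 Per cluster, summed Cy3 intensity from the target cycles was divided by that from the buffer cycles to give the fluorescence ratio, then averaged per switch-domain sequence. Clusters outside 100-1000 RFU were excluded. The Cy3-labelled switching-strand clusters, on a modified Illumina MiSeq flow-cell, were annealed to 100 nM quencher-labelled ATP aptamer and imaged in selection buffer, then after 15 min with 500 uM ATP at 22 °C, for five cycles with NaOH stripping and re-annealing between them.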
# 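Note: ATP exposure 15 min at 22 °C before imaging.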
row,Sequence,switch fluorescence ratio
1,GTTAAGGAAG,0.99
2,TATCAATTGA,1.03
3,TGCCGGCGCG,1.05
4,AACTGCCTGA,1.04
5,CTAAAAGCAA,1.74
6,AAAGCGTGGC,1.08
7,GTTGCTTCCC,1.12
8,TTGGTGCAAC,1.01
9,GGGAGGATTG,0.968
10,GCTTACGTAG,0.999
11,CCGGCGGCGA,1.88
12,TTTTAAAGAA,0.958
13,GGCCTGCG,0.95
14,TCTTACAAC,0.972
15,TTGAAATAT,3.27
16,TGCCGATGCT,1.01
17,GCGTACAGGG,1.03
18,ATCGCATTAA,1.78
19,TTTGGCTGGT,1.08
20,CCGCTCGCCT,3.86
21,GTCAATCACT,1.05
22,GTTGCGCGGT,0.963
23,AGGTTTAATG,0.997

row,Sequence,switch fluorescence ratio
1,GTGACGCGGG,0.991
2,GTAGGGCGTT,1.02
3,CGGATGATTT,0.988
4,TCTTATCTC,0.988
5,CAGTTGATGT,0.975
6,GTTGGTAG,0.996
7,TAAGAAGAAA,1.01
8,CTCAAGGAGA,1.02
9,ATTAGGAGTA,0.992
10,TTTAAATCCC,1.03
11,CCTAGCAGGG,1.14
12,GAATTCGATG,1
13,CGTGCGTCTT,1.01
14,GGGAACAATG,1.04
15,GATAGCATAG,1.09
16,ACCAAGAAGA,0.964
17,TGAATTAAC,1.02
18,TATTACCAAT,0.986
19,GACGTTGGTC,0.984
20,CAGCGACGAA,1.03
21,TCAGTCGCTG,1.05
22,GAATGTTTGC,0.932
23,AAGCGCGAAA,1.03

row,Sequence,switch fluorescence ratio
1,TTCGGGGTAA,0.987
2,TTACCTCTTC,1.09
3,TTGGGTCTAA,1.03
4,ATATGTGATA,0.952
5,ATCCGATTTG,1.05
6,GACTGCGACA,1.09
7,ACCGGCGCCA,1.07
8,ATTGAGCATT,1.01
9,GAAATGATAC,1.07
10,GAATCAGGTC,0.988
11,TTAACACTAT,1.02
12,TGGATGAAC,1.02
13,GTTCGCATC,1.92
14,AGAAGATGCG,1.02
15,CGACCGTGCC,1.4
16,TCAAGCTAGT,1.03
17,ATATCTTAGG,0.983
18,ATTGATAT,1
19,TAGTCAAGGT,1.03
20,AGGCTGCATA,1.08
21,AAGGTAACGC,1.07
22,ATCGGTATAC,1.79
23,AATGATTCTG,1.01

row,Sequence,switch fluorescence ratio
1,CTTCTTCGGG,1.05
2,GTCCAAGATG,1.05
3,GATCTATATT,1.03
4,TCTTTTCGAT,1.02
5,TGGGGATGCG,0.983
6,ACGTTACGGA,1.31
7,AAGACTGCGA,1.03
8,GCGACGTGCC,1.05
9,CGATTGAGTA,0.927
10,TTACAGGGA,0.962
11,TGAGTTGAGG,0.988
12,CATATCGAGT,0.998
13,ACAAGGCCCG,1.04
14,GTGTTATGTA,0.992
15,ATCTTATCCG,1.02
16,ATAGCGAAGC,0.969
17,CACTCCAAAA,2.1
18,TTCAGGGGC,1.06
19,ACTGAGAGCG,1.03
20,ACTCCAAACC,1.45
21,ATAAGGGCCG,0.934
22,ACTCGGTACC,1.04
23,CAAGTACCTG,1.28

row,Sequence,switch fluorescence ratio
1,AGCCTGGCTA,1.02
2,GAATCTATTA,1.01
3,TCCAGTGACC,1.03
4,ATGTGAAACC,1.03
5,TGATTGTTGC,0.995
6,TTCCGGGATT,1.07
7,GTGTATGGAA,1.06
8,AACTGATCAA,1.02
9,GGGGTGTGTA,1.01
10,GCGCAAAATG,0.999
11,TTTTCCATAG,1
12,ACAGGTAGTT,1.03
13,GGTCTGTGGG,0.983
14,CGGGCTGACT,0.981
15,ATTGCTTAAT,1.02
16,GAGATGCGC,0.996
17,GAATCGCACC,1.51
18,ACCTGTGTTT,1.03
19,CGCATCGACT,1.31
20,TAGGGCCACT,1.03
21,TTAAAGATCT,1.01
22,CGTGCAGCCA,1.03
23,GTCCTGTTGA,0.967

row,Sequence,switch fluorescence ratio
1,GTAAAATCTA,1.03
2,AATCCGAGAG,1.04
3,CAAAAGACCG,1.02
4,AGGGTCAGAA,1.03
5,ACGGGCGCTT,1.02
6,ATATCGTTAA,0.976
7,GATGTGCGAT,0.952
8,CTAGGCGACT,1.01
9,TTGGTTTCAC,0.993
10,CCGTATTGTC,1.2
11,GTCCCAAAAA,1.07
12,CTCTTTAATC,1.02
13,AGAAATAAGA,1
14,TGTAAGATGT,1.04
15,CTATATATAG,0.986
16,GACCGCCCCC,2.11
17,GAGCACCGAC,1.08
18,TGAGAGTCGG,1.01
19,GTGGTTGCTA,0.967
20,CGTGGAGCTG,0.95
21,GTAAGCGGCT,0.989
22,CGTTAACTGG,1.03
23,CAGGGCTGG,0.985

row,Sequence,switch fluorescence ratio
1,GCCAAATGGC,1
2,GGACTAGGTA,0.989
3,GGACTCTTGG,0.989
4,CCGCTGAGGG,1.41
5,AACCTTGTAC,1.25
6,CAAGGGCCTG,0.995
7,ATGCGCGTG,1.01
8,CAACTGCGAC,1.79
9,GCTTTAGTTA,0.999
10,AAGTGGTAGC,1.02
11,AAACTGGCCT,1.04
12,GCCATCTCGT,1.02
13,ACGTACCTTT,1.34
14,TTTGCCTCAG,1.16
15,TATTACGCT,1.02
16,TAGTGCAATG,1.01
17,CGTGCGCGA,1.33
18,TGCTACCGCC,1.09
19,TACTTCTTGA,0.996
